Test results published in PubChem BioAssay AID1030 (National Center for Advancing Translational Sciences (NCATS), 2008).
Out of some 220,000 compounds screened, about 16,000 (7.3%) were called active. The inconclusive results got no clear call from the source; some entries with a clear call stand among them for comparison. Calls follow the shape of the dose curve; as a rule, active = well fitted inhibition curve with a large enough effect (not every such curve was filed as active); inconclusive = small, poorly fitted or top-dose-only effect, or another doubt; inactive = no such curve, though single readings can be large or run the other way. A potency beside an inconclusive call is a rough fit, not a confirmed value. The source holds several records for some structures; these can differ, active in one and inactive in another.

Molecular target: Aldehyde dehydrogenase 1A1 (Homo sapiens) (UniProt P00352)
Assay: qHTS Assay for Inhibitors of Aldehyde Dehydrogenase 1 (ALDH1A1);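 as to activity, negative = inhibition: plate controls were no enzyme wells and a reference inhibitor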
Conditions: Purified ALDH1A1, NADH fluorescence, propionaldehyde substrate; series mostly up to 75.3 µM
Potency is read from the fitted curve at half-maximal effect; tags tell the direction and shape of the fitted curve.

Sequence of UniProt P00352 (P00352 whole entry, looked up): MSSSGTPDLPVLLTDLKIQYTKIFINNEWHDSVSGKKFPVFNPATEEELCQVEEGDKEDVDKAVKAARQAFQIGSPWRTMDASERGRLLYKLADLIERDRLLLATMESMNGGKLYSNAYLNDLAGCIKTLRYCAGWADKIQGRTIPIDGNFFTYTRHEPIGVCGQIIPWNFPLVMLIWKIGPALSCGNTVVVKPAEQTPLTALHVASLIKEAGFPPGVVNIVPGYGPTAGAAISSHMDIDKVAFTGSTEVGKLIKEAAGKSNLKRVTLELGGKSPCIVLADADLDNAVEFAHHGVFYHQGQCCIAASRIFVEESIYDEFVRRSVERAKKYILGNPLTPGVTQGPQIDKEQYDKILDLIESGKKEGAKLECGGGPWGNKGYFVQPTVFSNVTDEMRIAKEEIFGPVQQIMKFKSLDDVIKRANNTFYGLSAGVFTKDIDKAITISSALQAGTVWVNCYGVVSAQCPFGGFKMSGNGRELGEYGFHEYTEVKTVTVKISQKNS

Potency, inactive:
COc1ccc(-c2cc(C(F)F)n3ncc(C(=O)Nc4cccc(S(=O)(=O)N5CCOCC5)c4)c3n2)cc1
CCOC(=O)N1CCN(C(=O)C2CCC(CNS(=O)(=O)c3ccc(Cl)cc3)CC2)CC1 (stereo unspecified)
CC(=O)Nc1ccc(OCC(=O)N2CCC(Cc3ccccc3)CC2)cc1
O=C(O)c1cc2c(cc1Cl)N1CCCCCC1=NS2(=O)=O
CCOC(=O)c1sc(=S)n(-c2cccc(C(F)(F)F)c2)c1SC
O=C(NNC1=NCCC1)c1cccc(S(=O)(=O)N2CCOCC2)c1
c1ccc(-c2nc3nonc3nc2-c2ccccc2)cc1
C/C(=N\Nc1ccc(C(=O)O)cc1)c1ccc(S(=O)(=O)NCc2ccco2)cc1
O=C(Cn1c(-c2ccccn2)nc2ccccc21)N/N=C/c1ccccn1
CC(C)(C)NC(=O)[C@H]1CN(Cc2cccnc2)CCN1C[C@@H](O)C[C@@H](Cc1ccccc1)C(=O)N[C@H]1c2ccccc2C[C@H]1O
O=C(COc1ccc(F)cc1)NN1C(=O)CSC1=S
COc1ccc2c(c1)C=C(CN1CCN(C(C)C)C(CCO)C1)CO2 (stereo unspecified)
CN(c1cccc(NC(=O)CN(c2ccc(Cl)c(Cl)c2)S(=O)(=O)c2ccccc2)c1)S(C)(=O)=O
O=C(N/N=C/c1cc(Cl)ccc1O)c1ccc(Br)cc1
C=C1CCC(O)C/C1=C\C=C1/CCCC2(C)C1CCC2C(C)/C=C/C(C)C(C)C (stereo unspecified)

Potency, inconclusive:
COC(=O)c1ccccc1OCCCOc1ccc(C=O)cc1OC 8.91 µM [inhibitor, partial curve]
O=[N+]([O-])c1ccc(-c2cnc(SC(c3ccccc3)c3ccccc3)[nH]2)cc1 28.2 µM [inhibitor, single point]
CC1CCN(CC(O)COCCOc2ccc(Br)cc2)CC1 (stereo unspecified) 17.8 µM [inhibitor, single point]
COc1ccccc1CN1CCNC(=O)C1CC(=O)N(C)Cc1cnccn1 (stereo unspecified) 39.8 µM [inhibitor, single point]
CC(=O)NCc1ccc2[nH]c(C)cc2c1 39.8 µM [inhibitor, single point]
CCn1c(-c2ccc3[nH]c(C)c(C)c3c2)n[nH]c1=S 28.2 µM [inhibitor, partial curve]
O=C1CSC(c2cn(-c3ccccc3)nc2-c2cc3ccccc3o2)N1Cc1ccccc1 (stereo unspecified) 37.7 µM [inhibitor, single point]
COc1cc(CN2CCC(C(=O)N3CCCC(C)C3)CC2)cc(OC)c1O (stereo unspecified) 39.8 µM [inhibitor, single point]
O=C(NC(=S)Nc1ccc(Cl)cn1)C(c1ccccc1)c1ccccc1 3.55 µM [inhibitor, full curve]
O=C(CSc1nc(-c2ccco2)cc(C(F)(F)F)n1)NC1CCCC1 39.8 µM [inhibitor, single point]
CCOC(=O)c1sc2ccccc2c1OC(=O)c1ccccc1 35.5 µM [inhibitor, single point]
COc1cc(-c2c(C#N)c(=O)[nH]c3c2c(C)nn3-c2ccccc2)ccc1O 39.8 µM [inhibitor, single point]
Cc1cc(C)c2nc(NNC(=O)c3cc(-c4cccs4)nc4ccccc34)sc2c1 37.7 µM [inhibitor, single point]
Cc1noc(/C=C/c2ccco2)c1S(=O)(=O)N1CCC(C(=O)N2c3ccccc3CC2C)CC1 (stereo unspecified) 39.8 µM [inhibitor, single point]
Cc1ccc(NC(=S)c2ccc(N(C)C)cc2)cc1 39.8 µM [inhibitor, single point]
Cc1ccccc1C(=O)/C=C1/c2ccccc2CC(C)(C)N1C 35.5 µM [inhibitor, single point]
O=C(NCC1CCCO1)c1c(O)c2cccc3c2n(c1=O)CCC3 (stereo unspecified) 39.8 µM [inhibitor, single point]
CCOC(=O)CCCNC(=O)COC(=O)/C=C/c1ccc2c(c1)OCO2 39.8 µM [inhibitor, single point]
CNc1nc(CCN2C(=O)c3ccccc3C2=O)cs1 28.2 µM [inhibitor, single point]
Nc1c(C(=O)N2CCCC2)sc2nc(-c3ccccc3)ccc12 39.8 µM [inhibitor, single point]
COc1ccc(S(=O)(=O)N2CCCCC2)cc1NC(=S)Nc1cccc(Cl)c1C 25.1 µM [inhibitor, single point]
Cc1ccc(-c2nn(-c3ccccc3)c3[nH]c(=O)c(CNCCN(C)C)cc23)cc1 39.8 µM [inhibitor, single point]
C=CCNCC(=O)Nc1sc2c(c1C(=O)Nc1ccc(OC)cc1OC)CCC2 39.8 µM [inhibitor, single point]
Cc1ccc(S(=O)(=O)Nc2cccc3cccnc23)cc1 35.5 µM [inhibitor, single point]
O=C(Nc1ccc2oc(-c3ccccc3)nc2c1)c1cccnc1 39.8 µM [inhibitor, single point]
COc1cc2c(cc1OC)/C(=C/C(=O)N1CCOCC1)NC(C)(C)C2 28.2 µM [inhibitor, partial curve]
COc1ccc(N/N=C(\C#N)C(=N)SCc2ccccc2)cc1 39.8 µM [inhibitor, single point]
CCC(C)(C)n1nnnc1C(c1cc2cccc(C)c2[nH]c1=O)N1CCN(C(=O)c2ccco2)CC1 (stereo unspecified) 11.2 µM [inhibitor, partial curve]
O=C(NCCN1CCOCC1)c1cc2ccccc2[nH]1 39.8 µM [inhibitor, single point]
O=S(=O)(c1cccc2cccnc12)N1CCN(c2ccccn2)CC1 39.8 µM [inhibitor, single point]
COc1ccc(Cl)cc1NC(=O)C(=O)N/N=C/c1cc(C)n(-c2ccc(C)cc2)c1C 39.8 µM [inhibitor, single point]
COc1ccc(-c2nnc(SCc3cccc(C#N)c3)o2)cc1 14.1 µM [inhibitor, partial curve]
CN(Cc1ncc[nH]1)C(=O)CC1C(=O)NCCN1Cc1c(F)cccc1Cl (stereo unspecified) 28.2 µM [inhibitor, partial curve]
Cc1ccccc1Nc1nc(-c2sc(NC(=O)c3ccc([N+](=O)[O-])cc3)nc2C)cs1 35.5 µM [inhibitor, partial curve, poor fit]
O=C(O)CSc1c(O)c2ccccc2[nH]c1=O 37.7 µM [inhibitor, single point]
O=C(c1ccccc1)c1c[nH]c(C(=O)NNc2cccc(Cl)n2)c1 10 µM [inhibitor, partial curve]
CCOc1ccc(-c2cn3ccccc3n2)cc1[N+](=O)[O-] 28.2 µM [inhibitor, single point]
COc1ccccc1-c1cc(-n2ccnc2)ncn1 28.2 µM [inhibitor, partial curve]
COc1ccccc1Oc1ccc(N/C=C2/CCCC2=O)cc1 22.4 µM [inhibitor, single point]
CCOC(=O)c1ccn(-c2nc(-c3ccco3)cc(C(F)(F)F)n2)n1 35.5 µM [inhibitor, single point]
O=C(NC1CCCc2ccccc21)c1ccc(Cl)nc1 (stereo unspecified) 39.8 µM [inhibitor, single point]
C(=C\c1nnc2c3ccccc3ncn12)/c1ccccc1 25.1 µM [inhibitor, single point]

Potency, active:
CCOCC(=O)Nc1nnc(COc2ccc(Cl)cc2)s1 3.55 µM
Clc1ccccc1Cn1nnc2c(Nc3ccccc3)ncnc21 25.1 µM
CCOC(=O)c1ccc(NC(=S)NNC(=O)C2(C)CC2(Cl)Cl)cc1 (stereo unspecified) 10 µM
O=C1CN(C(=O)CSc2nc3cc(Cl)ccc3c(=O)n2Cc2ccccc2)c2ccccc2N1 7.94 µM
COc1ccc(Nc2c([N+](=O)[O-])ccc3c2=NC2(CCCCC2)N=3)cc1 7.08 µM
COc1ccccc1N(C(=O)c1ccncc1)c1nc(-c2ccc([N+](=O)[O-])cc2)cs1 11.2 µM
CSC(SC)=C(C#N)C(=O)c1ccccc1 22.4 µM
COC(=O)CC1C(=O)NCCN1C(=O)CSc1nnc(Nc2ccc(OC)cc2)s1 (stereo unspecified) 25.1 µM
Cc1cccc(Nc2cc(Cl)nc(SCC(=O)O)n2)c1C 10 µM
COc1ccc(Nc2cnn(-c3nc4ccccc4s3)c(=O)c2Cl)cc1 8.91 µM
O=C(CNC(=O)Cc1ccccc1)N=Nc1c(O)n(Cc2ccc3c(c2)OCO3)c2ccccc12 3.98 µM
CN1C(=O)NC(c2ccc(O)cc2)C(C(=O)c2cccs2)C1(O)C(F)(F)F (stereo unspecified) 7.94 µM
O=C(C1=C(O)C(=O)N(CCN2CCOCC2)C1c1ccccn1)c1cccs1 (stereo unspecified) 18.9 µM

activity, negative = inhibition, inactive:
FC(F)(F)c1nc2nc(Cl)c(Cl)nc2n1CCCN1CCOCC1 -2.45% [at 13.5 µM]
